Measured values from PMC2838797.
Results are given in words; binding and its absence hold for the method and conditions named. In cells and extracts the contact can be indirect. Some entries that bind do so weakly or less than the wild type. For part of these data: Tags and fused reporters may be left off the sequences shown. Blank lines part the entries; values can stand above or below the binder they belong to.

By UniProt entry, the sequences of proteins in these tests, tags left out. Where a name states a change or a piece, a line headed by the entry shows the natural chain unless it says otherwise.
UniProt P40337: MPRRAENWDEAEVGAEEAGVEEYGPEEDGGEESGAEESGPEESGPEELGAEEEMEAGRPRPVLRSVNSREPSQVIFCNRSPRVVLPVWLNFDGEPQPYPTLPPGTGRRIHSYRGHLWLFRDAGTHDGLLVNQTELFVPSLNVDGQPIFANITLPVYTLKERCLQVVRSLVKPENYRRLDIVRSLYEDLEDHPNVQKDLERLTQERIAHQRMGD
UniProt Q16665: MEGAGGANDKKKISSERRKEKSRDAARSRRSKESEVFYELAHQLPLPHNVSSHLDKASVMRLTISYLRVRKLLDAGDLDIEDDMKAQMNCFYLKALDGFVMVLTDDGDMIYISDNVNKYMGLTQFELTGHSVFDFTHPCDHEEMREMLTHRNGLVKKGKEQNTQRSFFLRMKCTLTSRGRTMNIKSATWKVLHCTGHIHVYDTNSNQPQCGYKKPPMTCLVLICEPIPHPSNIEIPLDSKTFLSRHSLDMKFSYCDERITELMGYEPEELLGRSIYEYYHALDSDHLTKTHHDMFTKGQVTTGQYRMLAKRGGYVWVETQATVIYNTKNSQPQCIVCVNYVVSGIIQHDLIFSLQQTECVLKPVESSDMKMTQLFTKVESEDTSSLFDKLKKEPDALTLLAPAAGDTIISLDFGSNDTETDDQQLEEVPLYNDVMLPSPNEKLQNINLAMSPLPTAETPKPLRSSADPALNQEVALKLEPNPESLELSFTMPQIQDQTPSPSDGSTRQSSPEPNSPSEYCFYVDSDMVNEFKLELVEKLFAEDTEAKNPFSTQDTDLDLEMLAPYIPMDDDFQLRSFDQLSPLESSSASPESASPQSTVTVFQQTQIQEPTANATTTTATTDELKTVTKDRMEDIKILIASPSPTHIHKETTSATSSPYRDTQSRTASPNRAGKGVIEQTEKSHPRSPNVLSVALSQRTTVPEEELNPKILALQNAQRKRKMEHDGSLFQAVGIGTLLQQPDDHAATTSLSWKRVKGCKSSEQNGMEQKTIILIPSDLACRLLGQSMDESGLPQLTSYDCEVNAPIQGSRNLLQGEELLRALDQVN

Tests used:
[1] = molecular target: HA-VHL (wild type von Hippel Lindau tumor suppressor with HA tag) (human) (UniProt P40337); assay: co-IP; HEK293 cells cotransfected, harvested 48 h posttransfection; RIPA lysates, IP and immunoblotting as indicated (Figures 2A, 2E, 4A)
[2] = molecular target: FLAG-VHL (K171R) (human) (UniProt P40337); assay: as above
[3] = molecular target: FLAG-VHL (wild type) (human) (UniProt P40337); assay: as above
[4] = molecular target: HIF1α (pCEP4/HIF1α) (UniProt Q16665); assay: co-IP; 786-O cells transfected with HIF1α, HA-VHL and FLAG-PIASy, 20 µM MG132 for 2 hr; IP with anti-HIF1α, immunoblot anti-HA, anti-HIF1α, anti-FLAG (Figure 5A)
[5] = molecular target: endogenous VHL (human (endogenous in HEK293)) (UniProt P40337); assay: co-IP; endogenous proteins; IP targeting VHL, immunoblotting for PIASy; preclear with normal rabbit serum (Figure 2B)

B1: FLAG-PIAS3 (enzyme, UniProt Q9Y6X2 1-628)
chain: MAELGELKHMVMSFRVSELQVLLGFAGRNKSGRKHELLAKALHLLKSSCAPSVQMKIKELYRRRFPRKTLGPSDLSLLSLPPGTSPVGSPGPLAPIPPTLLAPGTLLGPKREVDMHPPLPQPVHPDVTMKPLPFYEVYGELIRPTTLASTSSQRFEEAHFTFALTPQQVQQILTSREVLPGAKCDYTIQVQLRFCLCETSCPQEDYFPPNLFVKVNGKLCPLPGYLPPTKNGAEPKRPSRPINITPLARLSATVPNTIVVNWSSEFGRNYSLSVYLVRQLTAGTLLQKLRAKGIRNPDHSRALIKEKLTADPDSEVATTSLRVSLMCPLGKMRLTVPCRALTCAHLQSFDAALYLQMNEKKPTWTCPVCDKKAPYESLIIDGLFMEILSSCSDCDEIQFMEDGSWCPMKPKKEASEVCPPPGYGLDGLQYSPVQGGDPSENKKKVEVIDLTIESSSDEEDLPPTKKHCSVTSAAIPALPGSKGVLTSGHQPSSVLRSPAMGTLGGDFLSSLPLHEYPPAFPLGADIQGLDLFSFLQTESQHYGPSVITSLDEQDALGHFFQYRGTPSHFLGPLAPTLGSSHCSATPAPPPGRVSSIVAPGGALREGHGGPLPSGPSLTGCRSDIISLD
binding [1]: no binding

B3: FLAG-PIASy1-415 (domain or fragment, UniProt Q8N2W9 1-415)
chain: MAAELVEAKNMVMSFRVSDLQMLLGFVGRSKSGLKHELVTRALQLVQFDCSPELFKKIKELYETRYAKKNSEPAPQPHRPLDPLTMHSTYDRAGAVPRTPLAGPNIDYPVLYGKYLNGLGRLPAKTLKPEVRLVKLPFFNMLDELLKPTELVPQNNEKLQESPCIFALTPRQVELIRNSRELQPGVKAVQVVLRICYSDTSCPQEDQYPPNIAVKVNHSYCSVPGYYPSNKPGVEPKRPCRPINLTHLMYLSSATNRITVTWGNYGKSYSVALYLVRQLTSSELLQRLKTIGVKHPELCKALVKEKLRLDPDSEIATTGVRVSLICPLVKMRLSVPCRAETCAHLQCFDAVFYLQMNEKKPTWMCPVCDKPAPYDQLIIDGLLSKILSECEDADEIEYLVDGSWCPIRAEKERSC
binding [1]: binds

B4: FLAG-PIASy (full length PIASy) (enzyme, UniProt Q8N2W9 1-510)
chain: MAAELVEAKNMVMSFRVSDLQMLLGFVGRSKSGLKHELVTRALQLVQFDCSPELFKKIKELYETRYAKKNSEPAPQPHRPLDPLTMHSTYDRAGAVPRTPLAGPNIDYPVLYGKYLNGLGRLPAKTLKPEVRLVKLPFFNMLDELLKPTELVPQNNEKLQESPCIFALTPRQVELIRNSRELQPGVKAVQVVLRICYSDTSCPQEDQYPPNIAVKVNHSYCSVPGYYPSNKPGVEPKRPCRPINLTHLMYLSSATNRITVTWGNYGKSYSVALYLVRQLTSSELLQRLKTIGVKHPELCKALVKEKLRLDPDSEIATTGVRVSLICPLVKMRLSVPCRAETCAHLQCFDAVFYLQMNEKKPTWMCPVCDKPAPYDQLIIDGLLSKILSECEDADEIEYLVDGSWCPIRAEKERSCSPQGAILVLGPSDANGLLPAPSVNGSGALGSTGGGGPVGSMENGKPGADVVDLTLDSSSSSEDEEEEEEEEEDEDEEGPRPKRRCPFQKGLVPAC
binding [1]: binds | binding [4]: no binding

B6: FLAG-PIASy1-461 (domain or fragment, UniProt Q8N2W9 1-461)
chain: MAAELVEAKNMVMSFRVSDLQMLLGFVGRSKSGLKHELVTRALQLVQFDCSPELFKKIKELYETRYAKKNSEPAPQPHRPLDPLTMHSTYDRAGAVPRTPLAGPNIDYPVLYGKYLNGLGRLPAKTLKPEVRLVKLPFFNMLDELLKPTELVPQNNEKLQESPCIFALTPRQVELIRNSRELQPGVKAVQVVLRICYSDTSCPQEDQYPPNIAVKVNHSYCSVPGYYPSNKPGVEPKRPCRPINLTHLMYLSSATNRITVTWGNYGKSYSVALYLVRQLTSSELLQRLKTIGVKHPELCKALVKEKLRLDPDSEIATTGVRVSLICPLVKMRLSVPCRAETCAHLQCFDAVFYLQMNEKKPTWMCPVCDKPAPYDQLIIDGLLSKILSECEDADEIEYLVDGSWCPIRAEKERSCSPQGAILVLGPSDANGLLPAPSVNGSGALGSTGGGGPVGSMENGKP
binding [1]: binds

B7: FLAG-PIASy1-233 (domain or fragment, UniProt Q8N2W9 1-233)
chain: MAAELVEAKNMVMSFRVSDLQMLLGFVGRSKSGLKHELVTRALQLVQFDCSPELFKKIKELYETRYAKKNSEPAPQPHRPLDPLTMHSTYDRAGAVPRTPLAGPNIDYPVLYGKYLNGLGRLPAKTLKPEVRLVKLPFFNMLDELLKPTELVPQNNEKLQESPCIFALTPRQVELIRNSRELQPGVKAVQVVLRICYSDTSCPQEDQYPPNIAVKVNHSYCSVPGYYPSNKPG
binding [1]: no binding

Next, values leading:

binding [2]: binds | binding [3]: binds
B2: PIASy 1-492 with myc tag (enzyme, UniProt Q8N2W9 1-492)
chain: MAAELVEAKNMVMSFRVSDLQMLLGFVGRSKSGLKHELVTRALQLVQFDCSPELFKKIKELYETRYAKKNSEPAPQPHRPLDPLTMHSTYDRAGAVPRTPLAGPNIDYPVLYGKYLNGLGRLPAKTLKPEVRLVKLPFFNMLDELLKPTELVPQNNEKLQESPCIFALTPRQVELIRNSRELQPGVKAVQVVLRICYSDTSCPQEDQYPPNIAVKVNHSYCSVPGYYPSNKPGVEPKRPCRPINLTHLMYLSSATNRITVTWGNYGKSYSVALYLVRQLTSSELLQRLKTIGVKHPELCKALVKEKLRLDPDSEIATTGVRVSLICPLVKMRLSVPCRAETCAHLQCFDAVFYLQMNEKKPTWMCPVCDKPAPYDQLIIDGLLSKILSECEDADEIEYLVDGSWCPIRAEKERSCSPQGAILVLGPSDANGLLPAPSVNGSGALGSTGGGGPVGSMENGKPGADVVDLTLDSSSSSEDEEEEEEEEEDEDEE

binding [5]: binds
B5: endogenous PIASy (enzyme, UniProt Q8N2W9 1-510)
chain: B4 chain
